Laboratory results taken from PubChem BioAssay AID1346428 (National Center for Advancing Translational Sciences (NCATS), 2018).
“And” between values parts separate entries of the source, which are not always exact repeats. Identical values can stand only once. Out of some 48,000 compounds screened, about 1,200 (2.5%) were called active. Inconclusive results (about 2%) are left out.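 How the source made its calls: active means activation of at least 60% and not above a set upper limit (about 1 call in 100 departs from these limits); inconclusive means activation of 40% to 60%, or above that upper limit; inactive means activation under 40%.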 This is one part of the list.

Target: Probable G-protein coupled receptor 32 (Homo sapiens) (UniProt O75388)
Experiment: qHTS for Agonists of Human Resolvin D1 Receptor DRV1; further: 0% is about no effect
Settings: CHO-K1 GPR32 beta-arrestin PathHunter luminescence, 90 min; at 76.9 µM; active compounds read high; zero percent set by DMSO-only wells
Outline: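 GPR32 activation in stably transfected CHO-K1 cells, detected as beta-arrestin recruitment by enzyme-fragment complementation. Compound exposure: 90 min, 37 °C.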

UniProt O75388, sequence (O75388 whole entry, looked up): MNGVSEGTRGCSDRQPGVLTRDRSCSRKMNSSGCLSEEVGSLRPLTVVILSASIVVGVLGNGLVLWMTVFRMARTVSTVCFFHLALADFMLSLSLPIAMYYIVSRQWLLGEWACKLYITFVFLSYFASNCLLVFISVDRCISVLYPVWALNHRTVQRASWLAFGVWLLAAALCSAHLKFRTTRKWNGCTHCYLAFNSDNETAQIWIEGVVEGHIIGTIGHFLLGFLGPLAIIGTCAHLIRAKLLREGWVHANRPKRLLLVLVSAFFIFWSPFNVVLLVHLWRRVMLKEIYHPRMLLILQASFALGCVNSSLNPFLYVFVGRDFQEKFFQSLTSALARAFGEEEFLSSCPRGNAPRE

Row | Structure (SMILES) | activation
1 | CCCCOc1ccc(S(=O)(=O)n2nc(C)c(S(=O)(=O)N3CCC(C)CC3)c2C)cc1 | inactive: 9.19%
2 | O=C(CSCc1cnn(-c2ccccc2)c1-n1cccc1)NCc1ccccc1F | inactive: -15.4%
3 | COc1cccc(CNS(=O)(=O)c2cc(Br)cc3c2N(C(C)=O)C(C)C3)c1 (configuration not stated) | inactive: -0.955%
4 | CCCN1CCN(c2ncnc3sc(C(=O)Nc4ccc(N(CC)CC)cc4C)c(C)c23)CC1 | inactive: -24.7%
5 | Cc1ccc2oc(C(=O)Nc3ccc(S(=O)(=O)N(C)Cc4ccccc4)cc3)cc(=O)c2c1 | inactive: 23%
6 | CN(C)CCCO[C@@H]1[C@H]2OC(C)(C)O[C@H]2O[C@@H]1[C@H](O)CO | inactive: 8.73%
7 | Cc1cccc(Cc2cnc(NC(=O)c3ccc4c(c3)CC(c3ccccc3)OC4=O)s2)c1 (configuration not stated) | inactive: 12.2%
8 | CCc1ccc(-n2c(=O)c3c4c(sc3n(CC(=O)NCCCOC)c2=O)CCC4)cc1 | inactive: -19.2%
9 | COc1cccc(CC(=O)NCc2ccc3c(c2)CCN3C(C)=O)c1 | inactive: -14.8%
10 | CCc1ccccc1NC(=O)C1CCN(c2nn3c(=O)cc(C)nc3s2)CC1 | inactive: 7.98%
11 | CN(C)S(=O)(=O)Nc1ccc(-c2cn3ccsc3n2)cc1 | inactive: 8.71%
12 | COC(=O)c1ccccc1NC(=O)c1nc(S(=O)(=O)Cc2ccccc2F)ncc1Cl | inactive: -9.46%
13 | C[C@]12CC[C@@H]3c4ccc(O)cc4CC[C@H]3[C@@H]1C[C@@H](O)[C@@H]2O | inactive: -3.95%
14 | Cc1ccc(-n2nc(C(=O)N3CCN(c4ccccc4)CC3)c(=O)n(C)c2=O)cc1 | inactive: 3.48%
15 | CC(NC(=O)c1ccc2nc(CCc3ccccc3)oc2c1)c1ccccc1 (configuration not stated) | inactive: -13.5%
16 | Cc1ccccc1Cn1c(C)c(CNCc2ccccc2)c(C(=O)O)c1C | inactive: 0.048%
17 | CC(C)Oc1ccc(CNC(=O)c2ccc3nc(SCc4ccc(F)cc4)n(C)c3c2)cc1 | inactive: 1.14%
18 | Cc1ccc(C)c(NC(=O)CCc2c(C)n(C)c3cc(-c4ccccc4C)nn3c2=O)c1 | inactive: -11.5%
19 | COc1ccc(NC(=O)c2nc(SCc3ccccc3F)ncc2Cl)cc1 | inactive: -11.7%
20 | O=C(NCCc1ccc(Cl)cc1)c1ccc2c(c1)N(Cc1ccccc1)CCS2 | inactive: -11.4%
21 | COc1cccc(N2CCN(C(=O)c3ccc(CS(=O)c4cccc(Cl)c4)o3)CC2)c1 (configuration not stated) | inactive: -12.6%

Row | Structure (SMILES) | activation
22 | O=C(Nc1ccc2oc(-c3cccnc3)nc2c1)c1ccc(-c2cccc(OC(F)(F)F)c2)o1 | inactive: -5.58%
23 | COc1ccc(NC(=O)CN(C)S(=O)(=O)c2ccc3[nH]c4c(c3c2)CCCC4)cc1OC | inactive: 3.5%
24 | Cc1ccc(CN(C(=O)c2ccccc2Br)C2CCS(=O)(=O)C2)o1 (configuration not stated) | inactive: -17.8%
25 | CC1CCC(NC(=O)c2ccc3c(c2)N(Cc2cccc(Cl)c2)C(=O)c2ccccc2S3=O)CC1 (configuration not stated) | inactive: -23.6%
26 | O=C(NCc1ccc(Cl)cc1)C(=O)Nc1cccc(Br)c1 | inactive: 38.3%
27 | O=C(Nc1ccc2oc(-c3ccc4ccccc4c3)nc2c1)c1cc(Br)ccc1Cl | inactive: 0.225%
28 | Cn1c(=O)c2c(SCC(=O)NCc3ccco3)nc(-c3ccccc3F)nc2n(C)c1=O | inactive: -10.8%
29 | CCOc1ccccc1NC(=O)COc1cccc2c(=O)n(CCOC)ccc12 | inactive: -2.18%
30 | COc1ccc(NC(=O)CC2C(=O)N(c3ccccc3)C(=O)N2Cc2cccnc2)cc1 (configuration not stated) | inactive: -4.03%
31 | Cc1ccc(NC(=O)Nc2cc3c(cc2N2CCCCC2)n(C)c(=O)n3C)cc1Cl | inactive: -2.89%
32 | CC(=O)Nc1c(C(=O)Nc2cccc(C)c2)nnn1-c1ccc(C)cc1 | active: 119%
33 | CCOC(=O)c1ccc(NC(=O)c2c(C)oc3nc(C)nc(N4CCCC4)c23)cc1 | inactive: -11%
34 | CCC1CCCCN1S(=O)(=O)c1ccc(N2CCCCS2(=O)=O)cc1 (configuration not stated) | inactive: -16.5%
35 | COc1ccc(-c2[nH]ncc2C(=O)NCc2cccc(F)c2)cc1 | inactive: -8.69%
36 | COc1ccc(C2=NN(C(C)=O)C(c3cn(-c4ccccc4)nc3-c3cccs3)C2)cc1 (configuration not stated) | inactive: -5.3%
37 | COc1cccc(-n2c(=O)c3c4c(sc3n(Cc3ccc(F)cc3Cl)c2=O)CCCC4)c1 | inactive: -14.3%
38 | O=C(CCCc1nc(-c2ccco2)no1)Nc1ccccc1[N+](=O)[O-] | inactive: -14.8%
39 | COCCNC(=O)c1ccc2nc(CCc3ccccc3)oc2c1 | inactive: -3.89%
40 | CCc1ccc(NC(=O)CC(c2ccc(C)cc2)N2Cc3ccccc3C2=O)cc1 (configuration not stated) | inactive: -14.8%
41 | Cc1ccc(-n2nc(-c3ccc(F)cc3)c3cnc4cc5c(cc4c32)OCO5)cc1C | inactive: -2.64%
42 | COc1ccc(NC(=O)c2oc3ccc(S(=O)(=O)N(C)C4CCCCC4)cc3c2C)cc1Cl | inactive: 2.21%

Row | Structure (SMILES) | activation
43 | CCc1ccc(-c2cc(C)no2)cc1S(=O)(=O)N1CCN(c2cccc(Cl)c2)CC1 | inactive: -13.3%
44 | Cc1c(C(=O)Nc2ccc(Br)cc2F)oc2ccc(S(=O)(=O)N3CCC4(CC3)OCCO4)cc12 | inactive: -3.3%
45 | Cc1ccc(Cl)cc1N1CCN(C(=O)CCSCc2ccccc2F)CC1 | inactive: -30.8%
46 | O=C(c1ccco1)c1cn(CCOc2ccc(Cl)cc2)c2ccccc12 | inactive: 14.9%
47 | Cc1ccc(-c2noc(CSc3nnc(-c4ccc(Cl)cc4)n3C)n2)cc1 | inactive: -26.4%
48 | Cc1cccc(C(=O)NCC(c2ccc3c(c2)OCO3)N2CCOCC2)c1 (configuration not stated) | inactive: -8.22%
49 | CC(=O)c1ccc(NC(=O)Cn2c3ncccc3c(=O)n2-c2ccc(C)cc2)cc1 | inactive: -2.07%
50 | COc1ccc(NC(=O)c2cnc(SCC(=O)Nc3nc4ccc(C)cc4s3)n(C)c2=O)cc1 | inactive: -4.45%
51 | CCc1cccc2c3c([nH]c12)C(CC)(CC(=O)O)OCC3 (configuration not stated) | inactive: -1.13% and inactive: 4.46%
52 | CCc1ccc(C2C(C(=O)Nc3ccccc3)=C(C)Nc3nc(SCC(=O)c4ccc(C)cc4)nn32)cc1 (configuration not stated) | inactive: -7.18%
53 | COc1ccc(C(CNC(=O)c2ccc(C)cc2)N2CCOCC2)cc1 (configuration not stated) | inactive: -21.6%
54 | O=C(c1cccs1)N1CCCc2cc(NS(=O)(=O)c3ccc(Cl)cc3)ccc21 | inactive: -15.2%
55 | Cc1noc(NS(=O)(=O)c2ccc(N)cc2)c1C | inactive: -2%
56 | O=C(CSc1nccn1Cc1ccccc1)NC1CCCC1 | inactive: 8.18%
57 | COc1ccccc1-c1cc(C(F)(F)F)nc(S(=O)(=O)CCCC(=O)Nc2cc(Br)ccc2O)n1 | inactive: 17.1%
58 | CCC(=O)N1CCc2cc(CNC(=O)Nc3ccc(OC)cc3OC)ccc21 | inactive: -2.05%
59 | O=C(NCCc1ccccc1)C(=O)NCC(c1cccnc1)N1CCN(c2ccc(F)cc2)CC1 (configuration not stated) | inactive: 8.37%
60 | CCN(C(=O)CN(C)S(=O)(=O)c1ccc2c(c1)n(C)c(=O)c(=O)n2C)c1cccc(C)c1 | inactive: -10.1%
61 | COc1ccc(NC(=O)C2CCN(S(=O)(=O)c3c(C)noc3/C=C/c3ccco3)CC2)cc1 | inactive: -27.5%
62 | CCCCC(=O)O[C@]1(C(=O)CO)CC[C@H]2[C@@H]3CCC4=CC(=O)CC[C@]4(C)[C@H]3[C@@H](O)C[C@@]21C | inactive: 4.88%
63 | CN(C)c1ccc(C(CNS(=O)(=O)c2cc(F)ccc2F)N2CCOCC2)cc1 (configuration not stated) | inactive: -21.2%

Row | Structure (SMILES) | activation
64 | O=C(CSCc1ccc(F)cc1)N1CCN(c2ccccc2)CC1 | inactive: -12.9%
65 | Cc1cc(C)c(Cn2c(=O)n(CCCCCC(=O)NCc3ccc4c(c3)OCO4)c(=O)c3sccc32)c(C)c1 | inactive: -9.41%
66 | CCN(CC)C(=O)c1sc(NC(=O)C2c3ccccc3Oc3ccccc32)c(C(=O)OC(C)C)c1C | inactive: 5.64%
67 | COc1ccc(NS(=O)(=O)c2ccc3[nH]c4c(c3c2)CCCC4)c(OC)c1 | inactive: 14.7%
68 | CCOc1ccc(Nc2nc3ccccc3c3nnc(CC)n23)cc1 | inactive: -6.68%
69 | COc1cccc(NC(=O)Cn2c(=O)n(-c3cccc(OC)c3)c(=O)c3c4c(sc32)CCCC4)c1 | inactive: -5.11%
70 | CCCCCOc1ccc(C2SC(=O)NC2=O)cc1OCC (configuration not stated) | inactive: -4.04%
71 | CCN(C(=O)CCNC(=O)Cn1cnc2ccccc2c1=O)c1cc(OC)ccc1OC | inactive: -4.2%
72 | COc1ccc(NC(=O)CSC2=Nc3ccccc3N=C(c3ccc(F)cc3)C2)cc1OC | inactive: -15.9%
73 | Cc1ccc2c(c1)c1c(c(=O)n(-c3ccccc3C)c(=O)n1CC(=O)c1ccc(Cl)cc1)n2C | inactive: -0.89%
74 | CN(C)c1ccc(NC(=O)Cn2nnc3sc4c(c3c2=O)CCC(C(C)(C)C)C4)cc1 (configuration not stated) | inactive: -3.71%
75 | O=S(=O)(c1ccc(Cl)cc1)c1nnn2c1nc(NC1CCCCC1)c1sccc12 | inactive: -21.1%
76 | CCC1CN(C(=O)N2CCC(C(=O)NCc3cc(OC)c(OC)c(OC)c3)CC2)c2ccccc2O1 (configuration not stated) | inactive: -11.7%
77 | CN(C)c1ccc(CNC(=O)CN2C(=O)CSc3ccc(S(=O)(=O)N4CCCC4)cc32)cc1 | inactive: -23.5%
78 | CCSc1ncc(Cl)c(C(=O)Nc2nc3ccc(Cl)cc3s2)n1 | inactive: -15.4%
79 | O=C(Nc1ccc(O)c(-c2nc3ccccc3o2)c1)c1ccc(Br)cc1 | inactive: 14.6%
80 | CN(C)c1cccc(C(=O)Nc2nc3ccc(S(=O)(=O)N4CCCC4)cc3s2)c1 | inactive: -11.9%
81 | Cc1cccc(NC(=O)c2oc3ccccc3c2NC(=O)c2cc(=O)c3ccc(C)cc3o2)c1 | inactive: -11.8%
82 | Cc1cc(NC(=O)CCc2nc3cccnc3n2Cc2cccs2)ccc1Br | inactive: -1.11%
